According to PubChem BioAssay AID1159614 (National Center for Advancing Translational Sciences (NCATS), 2016):
The whole screen tested about 45,000 compounds, of which about 65 (0.1%) were called active. Calls come from the whole dose curve; as a rule, active = well fitted activation curve with a large enough effect; inconclusive = small, poorly fitted or top-dose-only effect; inactive = no such curve, though single readings can be large or run the other way. This is one part of the list.

biological target: Galactocerebrosidase (Homo sapiens) (UniProt P54803); experiment: A Novel Cell-Based Assay to Identify Small Molecules for B -Galactocerebrosidase; conditions: 145M-Twi-hGALC-G270D cells (Twitcher mouse brain line with human GALC G270D), HMU-beta-Gal fluorescence, 48 h; series mostly up to 57.5 µM; activation: at the top concentration; note: 0% is about no effect; nearly all actives have a fitted effect of over 65% in size
Chain of UniProt P54803 (P54803 whole entry, looked up): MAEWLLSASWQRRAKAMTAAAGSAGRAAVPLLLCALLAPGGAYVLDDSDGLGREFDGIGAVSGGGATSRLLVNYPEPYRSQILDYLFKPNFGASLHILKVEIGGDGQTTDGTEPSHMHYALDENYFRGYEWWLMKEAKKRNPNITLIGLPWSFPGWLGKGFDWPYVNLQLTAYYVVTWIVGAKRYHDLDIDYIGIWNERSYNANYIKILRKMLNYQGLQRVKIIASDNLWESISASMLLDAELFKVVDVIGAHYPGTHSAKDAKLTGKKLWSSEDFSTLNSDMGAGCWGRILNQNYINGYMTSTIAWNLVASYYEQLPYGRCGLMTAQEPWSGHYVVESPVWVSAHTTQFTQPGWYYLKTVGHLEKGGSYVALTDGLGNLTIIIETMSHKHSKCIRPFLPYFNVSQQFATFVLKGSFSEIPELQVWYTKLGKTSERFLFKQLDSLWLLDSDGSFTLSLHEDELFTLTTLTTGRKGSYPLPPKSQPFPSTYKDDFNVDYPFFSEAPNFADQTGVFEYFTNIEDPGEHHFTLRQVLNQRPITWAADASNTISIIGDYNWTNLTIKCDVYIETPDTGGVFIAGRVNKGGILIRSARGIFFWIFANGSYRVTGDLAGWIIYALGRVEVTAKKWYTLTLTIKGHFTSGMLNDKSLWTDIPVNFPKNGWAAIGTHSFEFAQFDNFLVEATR
Outline: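 Fluorescence readout: HMU-β-gal cleavage by mutant GALC (0.1 mM final, citrate/phosphate pH 5.2 with 1 mg/mL taurocholate), stopped with carbonate/bicarbonate plus Triton X-100. Cells: murine Twitcher 145M-Twi expressing human G270D GALC; qHTS for activators.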

activation, inactive:
O=C(NCc1cccc(Cl)c1)c1ccc(NC(=O)N2CC3CCCN3c3ccccc32)cc1 (stereo not drawn) -15.9%
CC(C)Oc1ccc(CNC(=O)c2ccc(CN3CC(=O)N4CCCCC4C3=O)cc2)cc1 (stereo not drawn) -12.9%
CSc1ncc(C(=O)NCc2cccc(F)c2)c(-c2ccccc2)n1 2.25%
O=C(CCS(=O)(=O)c1cc2c(cc1Cl)NC(=O)CO2)NCc1ccccc1Cl -16.1%
CCCc1nc(SC)ncc1C(=O)N1CCN(c2ccc(Cl)cc2)CC1 1.36%
COc1ccc(CN(Cc2ccco2)c2cnc(S(C)(=O)=O)nc2C(=O)Nc2ccc(C)c(Cl)c2)cc1 -16%
O=C(Nc1ccc2nc(SCC(=O)N3CCc4ccccc43)sc2c1)c1ccc(F)cc1 -8.05%
O=c1c2oc3ccccc3c2n(Cc2ccccc2Cl)c(=O)n1Cc1ccco1 -7.6%
O=C(NCCc1ccccc1)C1CCC(CNS(=O)(=O)c2ccccc2)CC1 (stereo not drawn) -10.9%
CC(C)Oc1ccc(C(=O)N2CCN(CCc3ccccn3)CC2)cc1 -6.45%
CCCn1c(SCc2nc(-c3ccc(OC)c(OC)c3)no2)nnc1-c1ccccc1 -17.1%
Cc1ccc(NC(=O)c2cnn3c(C(F)F)cc(-c4ccccc4)nc23)cc1F -10%
CC1CCc2nn(CC(=O)Nc3ccccc3Cl)cc2C1 (stereo not drawn) -10.2%
CCOc1ccc(NC(=O)NCCc2c(C)nn(C)c2C)cc1 -12.8%
Cc1cccc(N2CCN(C(=O)CN3CCSc4ccccc43)CC2C)c1 (stereo not drawn) -31.2%
CCc1ccc(-c2nc3c(c(SCc4ccccc4F)n2)Cc2c(CO)cnc(C)c2O3)cc1 -11.9%
COc1ccc(NC(=O)C(=O)NCC(c2cccnc2)N2CCc3ccccc32)cc1OC (stereo not drawn) -26.1%
COc1cccc(S(=O)(=O)N2CCN(Cc3ccc4c(c3)OCO4)CC2)c1 -12.7%
Cc1ccc(NC(=O)C(C)Sc2nc(=O)cc(N)n2-c2cccc(C)c2)cc1 (stereo not drawn) -6.87%
CN(Cc1ccccc1)S(=O)(=O)c1ccc(-c2cnc(C3CC3)o2)cc1 -12.1%
Cc1c(C2=CCN(S(=O)(=O)c3cccc(Cl)c3)CC2)c2ccccc2n1CC(=O)N1CCCC1 -9.24%
CCOc1ccccc1NC(=O)CN1C(=O)CC(c2ccc(OC)c(OC)c2)Sc2ccccc21 (stereo not drawn) -5.39%
Cc1ccc(-c2nnc(C3CCN(S(=O)(=O)c4ccc(C)c(C)c4)CC3)o2)cc1 -22.7%
Cn1c(-n2cccc2)c(-c2c(-c3ccccc3)[nH]c3c2c(=O)n(C)c(=O)n3C)c(=O)n(C)c1=O -13.5%
CCCCOC(=O)c1ccc(NC(=O)CSc2nc3c(c(=O)[nH]2)CCCC3)cc1 -9.24%
Cc1ccc(N2C(=O)CCSC23C(=O)N(Cc2ccccc2)c2ccccc23)cc1F (stereo not drawn) 1.04%
Cc1cc(C)cc(NS(=O)(=O)c2ccc3[nH]cc(C(=O)N(C)Cc4ccccc4)c(=O)c3c2)c1 -11.6%
O=C(NCc1ccc(F)cc1)c1cc2c(=O)n3ccccc3nc2s1 -12.6%
COc1ccc(OC)c(/C=C(/C#N)c2nc(-c3ccc(-c4ccccc4)cc3)cs2)c1 -22%
O=C(NCc1ccccc1)c1nn(-c2ccccc2)nc1CO -6.04%
Cc1ccc(CNC(=O)Cn2c(=O)n(-c3ccc(Cl)cc3)c(=O)c3c(C)c(C)sc32)cc1 -9.94%
Cc1ccccc1CN1C(=O)c2ccccc2Sc2ccc(C(=O)NC(C)c3ccccc3)cc21 (stereo not drawn) -14.1%
CCN1CCOC(=O)C1CC(=O)Nc1cc(C)cc(C)c1 (stereo not drawn) 2.77%
COc1ccccc1CNC(=O)c1ccc2c(c1)nc(C)n2-c1ccccc1OC -14.9%
Cc1nn2c(-c3ccco3)ccnc2c1-c1ccc(F)cc1 4.69%
CCCCNc1nc2c(S(=O)(=O)c3ccc(C)c(C)c3)nnn2c2ccsc12 -4.81%
Cc1c(-c2nc(-c3ccccc3)no2)nnn1-c1cccc(C(F)(F)F)c1 -14.7%
Cc1ccc(CSc2nc3c([nH]c4ccccc43)c(=O)n2C)cc1 -8.46%
COC(=O)c1ccccc1NC(=O)c1ccc2c(c1)CCN2S(C)(=O)=O -9.52%
COc1cc(Nc2ncc3c(n2)CCN(Cc2cc(Br)cs2)C3)cc(OC)c1 -14.6%
CCOc1ccccc1OCCN[C@H](C)Cc1ccc(OC)c(S(N)(=O)=O)c1 -17.3%
CCOc1ccc(NC(=O)Cn2c(C)cc3ccccc3c2=O)cc1 -9.02%
Cc1ccc(NC(=O)Cn2c(=O)n(CCCCC(=O)NCc3ccccc3Cl)c(=O)c3ccccc32)cc1C -3.14%
COc1ccccc1NC(=O)CN1CCCN(S(=O)(=O)c2ccc(Br)cc2)CC1 -18.9%
Cc1nc2ccccn2c(=O)c1NC(=O)c1ccc(C(F)(F)F)cc1 -11.6%
COc1ccc(NC(=O)c2cccn2-c2nnc(N3CCCCC3)s2)cc1Cl -22.3%
Cc1ccc(C)c(NC(=O)CSc2c3c(nc4ccc(Cl)cc24)CCCC3)c1 -7.91%
COc1cn(CC(=O)Nc2cccc(C)c2C)c(CN2CCCCC2)cc1=O -7.3%
CC1=C(C(=O)Nc2cccnc2)C(c2ccc(Cl)cc2)n2nc(-c3ccccc3)nc2N1 (stereo not drawn) -8.31%
COc1ccc(OC)c(S(=O)(=O)NCc2cccn2Cc2cccc(C)c2)c1 -11.2%
CCn1cc(C(=O)O)c(=O)c2cnc(N3CCCC3)nc21 -3.04% [at 11.5 µM]
COc1ccc(C(=O)Nc2cccc(OCc3cc(=O)n4c5c(sc4n3)CCCC5)c2)cc1 -6.96%
Cn1c(=O)c2c(nc3n(-c4ccc(O)cc4)c(-c4ccc(Br)cc4)cn23)n(C)c1=O -20.9%
COc1ccc(/C=C(\C#N)c2nc(-c3cc4c(ccc5ccccc54)oc3=O)cs2)cc1O -12.3%
Cc1ccc(C2=Nc3ccccc3N(CC(=O)NCc3ccc(F)cc3)C(=O)C2)cc1C -11.9%
O=C(O)c1ccc(-n2c(/C=C\c3ccc(O)cc3)nc3ccccc3c2=O)cc1 3.68%
CCOC(=O)c1ccccc1NC(=O)c1sc2ncn(Cc3cccc(F)c3)c(=O)c2c1C -7.92%
CCN1CCN(c2cc3c(cc2F)c(=O)c(S(=O)(=O)c2ccccc2)cn3C)CC1 -1.56%
CC(C)NC(=O)CCCN1C(=O)CCn2nc(-c3cccn3C)cc21 -8.32%
COc1ccccc1NC(=O)CSc1nc2ccccc2c2nc(-c3ccccc3)nn12 -9.47%
COc1cccc(C(=O)c2cn(CC(=O)NCc3ccccc3)c3nc(C)ccc3c2=O)c1 -24.6%
COc1ccc(OCc2nc3c4c(-c5ccccc5)c(-c5ccccc5)oc4ncn3n2)cc1 -4.35%
COc1ccc(CNC(=O)CSc2nc3ccccc3nc2Cc2ccccc2OC)cc1 9.17%
COC(=O)c1sc(NC(=O)/C=C/c2ccc(OC)c(OC)c2)c(C(=O)OC)c1C -14.7%
O=S(=O)(O)CCS -15%
CC1=C(C(=O)OCc2ccccc2)C(c2cccc(Cl)c2Cl)CC(=O)N1 (stereo not drawn) -8.58%
Cc1nn(C)c2c1c(C(F)(F)F)cc(=O)n2C(C)C(=O)NCc1ccc(Cl)cc1 (stereo not drawn) -22.1%
O=C(Nc1ccc(Br)cc1F)N1CCC(CN2CCCC2)CC1 -8.82%
CCOC(=O)c1ccc(NS(=O)(=O)c2cc(-c3onc(C)c3C)ccc2C)cc1 9.96%
Cc1cccc(CNC(=O)CSCc2cnn(-c3ccccc3)c2-n2cccc2)c1 -15%
Cc1[nH]c2ccccc2c1C1N2CC3(C)CN1CC(C)(C2)C3=O (stereo not drawn) 4.11%
CC1=C(c2ccc(C)cc2)S(=O)(=O)NC1=NCc1cccc(F)c1 -7.87%
CCN1C(=O)c2ccccc2S(=O)c2ccc(C(=O)N3CCN(c4cccc(C)c4)C(C)C3)cc21 (stereo not drawn) -13.2%
COc1cc(OC)c(C2Nc3c(C)cccc3-c3cc(C)nn32)cc1OC (stereo not drawn) -0.8%
CCc1ccccc1NC(=O)Cn1c2ncccc2c(=O)n1-c1ccccc1 -4.91%
COc1ccc(Cn2ccc3nc(C)c(C(=O)NCc4cccc(OC)c4)cc3c2=O)cc1 -15.5%
Cc1ccc(-n2nc3c(=O)n(CC(=O)NCC(C)c4ccccc4)nc(C)c3c2C)cc1 (stereo not drawn) -8.63%
CCOc1cc2sc(N3CCC(C(=O)Nc4cc(C)cc(C)c4)CC3)nc2cc1Br -26.1%
Cc1cc(=O)c2cc(C(=O)Nc3ccccc3C)ccc2[nH]1 -10.4%
CCOc1ccc(CNC(=O)CCCc2cn(C)c3ccccc23)cc1OC 7.54%
COC(=O)c1cc2sc(Cl)cc2n1Cc1cc(C)ccc1C -11.2%
CCn1cc2c(n1)-c1c(oc(C(=O)Nc3cccc(C(F)(F)F)c3)c1C)CC2 -18.7%
COc1ccccc1Cn1cc(C(=O)c2ccc(C)cc2)c(=O)c2cc3c(cc21)OCCO3 -9.82%
COC(=O)c1ccc(CSc2nnc3ccc4ccccc4n23)cc1 -10.7%
COc1cc(F)c(S(=O)(=O)Nc2c(C)n(C)n(-c3ccccc3)c2=O)cc1OC -17.3%
COc1ccccc1-c1noc(CCCC(=O)Nc2cc(C)ccc2C)n1 -15.7%
COc1ccc(C(=O)Nc2ccc(C(=O)OCc3cc(=O)n4nc(C5CC5)sc4n3)cc2)cc1 11.1%
O=C(CN1CCSc2ccccc21)N1CCN(c2ccc(F)cc2)CC1 -7.9%
Cc1ccc(N(C)C(=O)c2cc(S(=O)(=O)N3CCOCC3)cn2C)cc1 -0.713%
CCCN(Cc1cccs1)C(=O)Nc1cc(OC)ccc1OC -19.7%
COc1ccc(CCNC(=O)CCCCn2c(=O)c3ccccc3n(Cc3ccccc3Cl)c2=O)cc1OC -20.6%
COc1ccc(OC)c(S(=O)(=O)NCCc2csc(-c3cccc(F)c3)n2)c1 2.89%
CCOC(=O)c1c(C)[nH]c(C)c1S(=O)(=O)NCC(=O)N1CCN(c2ccccc2OC)CC1 -15.2%
CCN(CC)C(=O)Nc1ccc2c(c1)N(Cc1ccccc1)C(=O)c1ccccc1S2 -11.4%
Cc1ccc(-n2nc3c(N4CCC(C(=O)NCc5ccccc5Cl)CC4)nnc(C)c3c2C)cc1 -6.12%
CC(=O)c1ccc(NC(=O)CCOc2ccccc2)cc1 -10.5%
COc1cc(C2c3c(-c4ccccc4O)n[nH]c3C(=O)N2Cc2ccco2)ccc1OCC(C)C (stereo not drawn) -11.8%
CCOc1ccccc1NC(=O)C(CC)n1c(C(=O)OC)cc2occc21 (stereo not drawn) -14.1%
